# Hit rate of the full screen: of about 39,000 compounds, about 220 (0.56%) showed activity. The list shows a part of the results.
# System: Escherichia coli K-12 BW25113
# Test: relative growth (OD600 normalised to plate interquartile mean) (fraction); higher = less growth inhibition, active = 0.2 or less
# Settings: 50 µM; LB; incubation time: overnight (16-24 h)
# 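Note: static incubation at 37 °C against the wild-type strain, values averaged over two biological replicates.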
row,Structure (SMILES),relative growth
1,CC(C)NC(=O)Nc1ccc2c(c1)C(=O)N([C@@H](C)CO)C[C@@H](C)[C@@H](CN(C)CC1CCCCC1)OCCCC[C@H](C)O2,inactive: 0.999
2,C[C@@H]1CCCCO[C@@H](CN(C)C(=O)Nc2cccc3ccccc23)[C@H](C)CN([C@@H](C)CO)C(=O)c2cc(NC(=O)CCCN(C)C)ccc2O1,inactive: 0.99
3,O/N=C/c1ccc2ccccc2c1,inactive: 1.03
4,O=c1[nH]nc(N2CCSCC2)[nH]1,inactive: 0.983
5,C[C@H](CO)N1C[C@H](C)[C@H](CN(C)C(=O)Nc2ccccc2)OCCCC[C@H](C)Oc2ccc(NC(=O)C3CCCCC3)cc2C1=O,inactive: 0.981
6,COc1ccc(CN(C)C[C@H]2OCCCC[C@H](C)Oc3ccc(NC(=O)c4ccccc4)cc3C(=O)N([C@@H](C)CO)C[C@@H]2C)cc1,inactive: 0.989
7,C[C@H](CO)N1C[C@H](C)[C@H](CN(C)C(=O)Nc2ccc(C(F)(F)F)cc2)OCCCC[C@H](C)Oc2ccc(NC(=O)Nc3ccc(C(F)(F)F)cc3)cc2C1=O,inactive: 1.01
8,C[C@@H]1CN([C@@H](C)CO)C(=O)c2cc(NC(=O)Cn3cnnn3)ccc2O[C@H]1CN(C)Cc1ccc(Cl)c(Cl)c1,inactive: 1.02
9,C[C@H]1CN([C@@H](C)CO)C(=O)c2cc(NS(C)(=O)=O)ccc2O[C@@H]1CN(C)C(=O)NC1CCCCC1,inactive: 0.984
10,O=C(O)[C@H]1C[C@@H]2C[C@H]1CC[C@@H]2O,inactive: 0.997
11,C[C@H](CO)N1C[C@H](C)[C@H](CN(C)CC2CCCCC2)Oc2ccc(NC(=O)Nc3cccc4ccccc34)cc2C1=O,inactive: 1
12,Cc1nnc(N2CCC[C@]3(CN(C(=O)CO)CCO3)C2)o1,inactive: 1.01
13,C[C@H](O)C#Cc1ccc2c(c1)O[C@@H](CN(C)C)[C@@H](C)CN([C@H](C)CO)S2(=O)=O,inactive: 1
14,C[C@H](CO)N1C[C@H](C)[C@H](CN(C)C(=O)NC2CCCCC2)Oc2ccc(NC(=O)Cn3cnnn3)cc2CC1=O,inactive: 1
15,CC(C)NC(=O)N(C)C[C@H]1Oc2c(NC(=O)C3CCCCC3)cccc2C(=O)N([C@@H](C)CO)C[C@@H]1C,inactive: 0.953
16,C[C@H]1CN([C@@H](C)CO)C(=O)c2cccc(NC(=O)CCCCCC(=O)Nc3ccccc3N)c2O[C@@H]1CN(C)S(=O)(=O)c1cn(C)cn1,inactive: 0.967
17,CO[C@H]1CCCNC1,inactive: 0.997
18,C[C@@H]1CN([C@H](C)CO)C(=O)Cc2cc(NC(=O)Cc3ccccc3)ccc2O[C@@H]1CN(C)S(=O)(=O)c1cn(C)cn1,inactive: 0.981
19,C[C@@H]1CCCCO[C@@H](CN(C)C)[C@@H](C)CN([C@H](C)CO)C(=O)c2cc(NC(=O)Nc3cccc4ccccc34)ccc2O1,inactive: 1
20,C[C@H]1CCCCO[C@H](CN(C)C(=O)Nc2ccc3c(c2)OCO3)[C@@H](C)CN([C@@H](C)CO)C(=O)c2cc(NC(=O)Nc3ccccc3)ccc2O1,inactive: 1.05
21,CC(C)C[C@@H]1C(=O)O[C@H](C)C(=O)N(C)[C@@H](CC(C)C)C(=O)O[C@H](Cc2ccc(N3CCOCC3)cc2)C(=O)N(C)[C@@H](CC(C)C)C(=O)O[C@H](C)C(=O)N(C)[C@@H](CC(C)C)C(=O)O[C@H](Cc2ccc(N3CCOCC3)cc2)C(=O)N1C,inactive: 0.978

row,Structure (SMILES),relative growth
1,C[C@H]1CN([C@@H](C)CO)C(=O)Cc2cc(NS(=O)(=O)c3cccs3)ccc2O[C@H]1CN(C)CC1CC1,inactive: 0.929
2,Cc1noc(C)c1S(=O)(=O)N(C)C[C@H]1OCc2cn(nn2)CCCC(=O)N([C@@H](C)CO)C[C@H]1C,inactive: 1.01
3,COc1ccc(CN(C)C[C@@H]2OCCCC[C@H](C)Oc3ccc(NS(=O)(=O)c4ccccc4)cc3C(=O)N([C@H](C)CO)C[C@@H]2C)cc1,inactive: 0.992
4,CC(C)NC(=O)Nc1cccc2c1O[C@@H](CN(C)S(=O)(=O)c1ccccc1)[C@H](C)CN([C@@H](C)CO)C2=O,inactive: 1.01
5,COc1cccc(-c2ccc3c(c2)O[C@H](CN(C)C(=O)C2CCOCC2)[C@H](C)CN([C@H](C)CO)S3(=O)=O)c1,inactive: 1.01
6,C[C@H]1CN([C@@H](C)CO)C(=O)c2cc(NS(=O)(=O)c3ccc(F)cc3)ccc2O[C@@H]1CN(C)Cc1ccc(Oc2ccccc2)cc1,inactive: 1
7,CC(C)[Si](C#C[Si](C(C)C)(C(C)C)C(C)C)(O[C@H](C)c1cn(Cc2cccc(Cl)c2)nn1)C(C)C,inactive: 1
8,C[C@@H]1CN([C@H](C)CO)C(=O)c2cc(NC(=O)Nc3ccc(C(F)(F)F)cc3)ccc2O[C@@H]1CN(C)C(=O)Nc1ccc(F)cc1,inactive: 1
9,Cc1ccc(S(=O)(=O)N(C)C[C@@H]2Oc3ccc(NC(=O)c4ccncc4)cc3CC(=O)N([C@@H](C)CO)C[C@H]2C)cc1,inactive: 1.02
10,NCc1ccccc1CC(=O)NC1C(=O)N2C(C(=O)O)=C(CSc3nnnn3CC(=O)O)CSC12 (stereo unspecified),active: 0.0453
11,c1ccc(-c2nn(-c3ccccc3)c3c2cnc2ccccc23)cc1,inactive: 0.956
12,C=CCOC(=O)[C@@H]1[C@@H]2C=C[C@@]3(O2)[C@@H]1C(=O)N(CCCCCCO)[C@H]3C(=O)N(CC=C)Cc1ccccc1,inactive: 1.03
13,Cc1ccc(S(=O)(=O)N(C)C[C@@H]2Oc3ccc(NS(=O)(=O)c4c(C)noc4C)cc3C(=O)N([C@@H](C)CO)C[C@@H]2C)cc1,inactive: 0.993
14,CN1CCN(C(=O)C[C@@H]2CC[C@H]3[C@@H](COC[C@@H](O)CN3C(=O)C3CCCC3)O2)CC1,inactive: 1.01
15,O=C(C[C@H]1C[C@H]2c3cc(NS(=O)(=O)c4ccc(F)cc4)ccc3O[C@H]2[C@H](CO)O1)NCCc1ccccc1,inactive: 1.02
16,C[C@@H]1CN([C@@H](C)CO)C(=O)c2cc(NC(=O)CCCN(C)C)ccc2O[C@@H]1CN(C)Cc1ccc(Oc2ccccc2)cc1,inactive: 0.957
17,C[C@@H]1CCCCO[C@@H](CN(C)Cc2ccc(C(F)(F)F)cc2)[C@@H](C)CN([C@@H](C)CO)C(=O)c2cc(N(C)C)ccc2O1,inactive: 1.05
18,CCCCCCCCCCCCCCCC[N+](C)(C)Cc1ccccc1.[Cl-],active: 0.0933
19,C[C@@H]1CN([C@@H](C)CO)C(=O)c2cc(NC(=O)Nc3ccccc3)ccc2O[C@H]1CN(C)C(=O)Nc1ccc(C(F)(F)F)cc1,inactive: 0.991
20,C[C@H](O)C#Cc1cnc2c(c1)C(=O)N([C@@H](C)CO)C[C@@H](C)[C@H](CN(C)Cc1cncnc1)O2,inactive: 0.996
21,C[C@@H]1CN([C@H](C)CO)C(=O)c2cccc(NC(=O)C3CCOCC3)c2O[C@@H]1CN(C)S(=O)(=O)c1cccs1,inactive: 0.98

row,Structure (SMILES),relative growth
1,C[C@H](CO)N1C[C@H](C)[C@@H](CN(C)Cc2ccc(C(=O)O)cc2)Oc2ccc(NC(=O)Cn3cnnn3)cc2C1=O,inactive: 0.976
2,Cc1ccc(S(=O)(=O)N[C@H]2C=C[C@H](CC(=O)NCCN3CCCCC3)O[C@@H]2CO)cc1,inactive: 1.01
3,C[C@H](CO)N1C[C@H](C)[C@@H](CN(C)S(=O)(=O)c2ccccc2)Oc2c(NS(=O)(=O)c3cccs3)cccc2C1=O,inactive: 0.985
4,C[C@@H]1CCCCO[C@@H](CN(C)S(C)(=O)=O)[C@H](C)CN([C@@H](C)CO)C(=O)c2cc(NS(=O)(=O)c3ccc(F)cc3)ccc2O1,inactive: 1.01
5,OC(Cn1cncn1)(Cn1cncn1)c1ccc(F)cc1F,inactive: 0.998
6,O=C(NCc1nc2ccccc2[nH]1)C1=C[C@@H](c2csc3ccccc23)C[C@@H](OCc2ccc(CO)cc2)O1,inactive: 1.01
7,C[C@H](CO)N1C[C@H](C)[C@@H](CN(C)C(=O)c2ccncc2)OCCCC[C@H](C)Oc2ccc(NC(=O)C3CCCCC3)cc2C1=O,inactive: 0.998
8,CCS(=O)(=O)N1CCC[C@]2(C(=O)NCC3CC3)CN(Cc3cnn(C)c3)C[C@H]2C1,inactive: 1.02
9,C[C@@H](CO)N1C(=O)[C@@H]2[C@H]3C(=O)OCCC=C[C@H]3O[C@]23C=CCN(Cn2nnc4ccccc42)C(=O)[C@@H]13,inactive: 0.984
10,C[C@H]1CN([C@@H](C)CO)S(=O)(=O)c2ccc(-c3cncnc3)cc2O[C@@H]1CN(C)C(=O)CN(C)C,inactive: 1.01
11,C[C@H](O)C#Cc1ccc2c(c1)O[C@@H](CN(C)C(=O)C1CCCCC1)[C@H](C)CN([C@@H](C)CO)S2(=O)=O,inactive: 0.953
12,C[C@H]1CN([C@@H](C)CO)C(=O)Cc2cc(NS(C)(=O)=O)ccc2O[C@@H]1CN(C)S(C)(=O)=O,inactive: 0.977
13,Nc1ncnc2[nH]c(=S)[nH]c12,inactive: 1.01
14,C[C@H](CO)N1C[C@H](C)[C@H](CN(C)C(=O)C2CCCCC2)Oc2cc(C#CC(C)(C)O)ccc2S1(=O)=O,inactive: 0.986
15,CSc1nc(C)nc2ccccc12,inactive: 0.992
16,COc1ccc(C#Cc2ccc3c(c2)O[C@H](CN(C)C(=O)CN2CCOCC2)[C@@H](C)CN([C@H](C)CO)S3(=O)=O)cc1,inactive: 1.01
17,C[C@H]1CN([C@@H](C)CO)C(=O)Cc2cc(NS(=O)(=O)c3ccc(F)cc3)ccc2O[C@H]1CN(C)Cc1ccncc1,inactive: 1.01
18,COc1ccccc1NC(=O)N(C)C[C@H]1Oc2ncc(Br)cc2C(=O)N([C@@H](C)CO)C[C@H]1C,inactive: 0.98
19,COc1ccc(S(=O)(=O)Nc2ccc3c(c2)C(=O)N([C@H](C)CO)C[C@H](C)[C@H](CN(C)C(=O)CCC(F)(F)F)OCCCC[C@@H](C)O3)cc1,inactive: 0.994

# Source: the supplement of paper PMC9446081
